Results as given in article PMC7448383 (Cell, 2020).

Biological target: the molecule itself
Test: cross-linking

B1: G3BP1 S149E, purified recombinant (natural protein)
chain: not shown
- binding result: binds

B2: G3BP1 S149A, purified recombinant (natural protein)
chain: not shown
- binding result: binds
